# Data: the supplement of paper PMC11417369
# This is one part of the list.
# Tested on: PfSIP2 AP2 domain 1 (GST-tagged)
# Experiment: gcPBM binding intensity (ln(normalized median fluorescence intensity)); higher = stronger DNA binding
# Method in brief: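 The highest Masliner-normalised natural-log median intensity across replicate spots of either probe orientation is reported as binding intensity. GST-tagged P. falciparum DNA-binding domains expressed in E. coli were applied for 1 h to an Agilent 4 × 180k array of primer-extended double-stranded 36-bp intergenic genomic probes plus negative controls, and bound protein was detected with Alexa488 anti-GST antibody and scanned at 488 nm.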
row,Sequence,gcPBM binding intensity (ln)
1,TTTTTAATCAGAAATATTTATTAAAGAATTTTATAG [GTGCAC_negctrl_site725],6.65
2,ATATACATAATTTGGAGTACAATATCATATAAATAT [XGTACX_site6334],7.25
3,AATGTACAAATACGTACACACATATATATATATATA [CACACA_site1542],9.03
4,GTATAAAATATTTTATGTACATAATATATATATATA [XGTACX_site2489],8.68
5,AAATAAAGGAAATGTATATCAACATTAAAATAAGGC [CACACA_negctrl_site441],7.24
6,TTTTACAATAACAATACACACTATAATATGTAAATA [CACACA_site6772],7.11
7,CATTTAAAATTTGTTTGTACATATATATATATATAT [XGTACX_site6729],9.76
8,ATATATATATATATATGTACTTATGTCATCATTAAA [XGTACX_site5316],9.75
9,TATATGTATGTTTGTGTGCACACATAAATATTATAT,8.48
10,TAGTATAATATGAACACACACACACCGACAAAAAAA [CACACA_site5151],7.02
11,AATTGAAAAAGAAATTGTACATTTTATTTTTATTAT [XGTACX_site1973],6.81
12,ATATAATTTATATATTCACACAAGGAATACTTTTAT [CACACA_site5506],6.93
13,ATACATATATATATATGTACATATGTATTTTTTATT [XGTACX_site105],7.38
14,AATAAAATATATTCCTGTACATATGATTCTTTTTTT [XGTACX_site7980],6.94
15,TTTACATATTTATATACACACTTTTGCGTGCGTGGT [CACACA_site6647],7.13
16,ACTATACAGTTATACACACACATATATCTATAATAT [CACACA_site6283],7.39
17,ATGGAATAATCACGTACACACAAGAAAAAAAAAAAT [CACACA_site527],7.2
18,GGATAATATATTAGAACACACATATATATGTAAAAA [CACACA_site185],7.08
19,ATTACAAATACAAACACACAAATGTTTTTCATTCAA [CACACA_site7639],6.94
20,TTTTATTTGACAAGCACACACTTAAATATATATATA [CACACA_site5792],8.79
21,AAACAAAAAATAAAATGTACATTTATTACGATAAGT [XGTACX_site2392],7.48
22,TATATATGTAGACGTTGTACTTTTTTGTAAGTTTAA [XGTACX_site5638],7.27
23,TGTGTCAAGTTTAATAAACGCATATAATATATATGA [CACACA_negctrl_site607],6.85
24,TTTAAATTTTTATATTGTACTTTATTTATTTATTTA [XGTACX_site869],6.95
25,CATGACATATCCTGTAGTACAACGTATATATAAGAT [XGTACX_site2577],7.01
